Measured values as given in the supplement of paper PMC10369915.
This is one part of the list. Cut-off read from the data, not from the text of the source: active = 3.2 or more and inactive = the rest. The signal is at background level for most entries.

How the values were obtained:
Test in all cases: enrichment score (SH2-bound / input frequency) (ratio); bacterial display of known human phosphotyrosine sites (pTyr-Var adds point mutants) read by sequencing; higher = stronger binding; tyrosines were phosphorylated by kinases first
Details in all cases: peptide library: pTyr-Var
SHP2 C-SH2 domain E139D = target: SHP2 C-SH2 domain E139D
[1] = target: SHP2 C-SH2 domain wild-type
SHP2 N-SH2 domain L43F = target: SHP2 N-SH2 domain L43F
SHP2 N-SH2 domain T42A = target: SHP2 N-SH2 domain T42A
SHP2 N-SH2 domain T52S = target: SHP2 N-SH2 domain T52S
[2] = target: SHP2 N-SH2 domain wild-type

Measured: enrichment score
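Note: displayed peptides selected on beads carrying the immobilized SH2 domain, with library peptides lacking any tyrosine serving as negative controls.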

B1: HLA-A_Y195 (peptide)
chain: EWLRRYLENGK
inactive: SHP2 C-SH2 domain E139D 0.585 | [1] 0.617 | SHP2 N-SH2 domain L43F 0.516 | SHP2 N-SH2 domain T42A 0.506 | SHP2 N-SH2 domain T52S 0.605 | [2] 0.733

B2: HLA-A_Y195_E190D (peptide)
chain: DWLRRYLENGK
inactive: SHP2 C-SH2 domain E139D 0.55 | [1] 0.429 | SHP2 N-SH2 domain L43F 0.541 | SHP2 N-SH2 domain T42A 0.323 | SHP2 N-SH2 domain T52S 0.441 | [2] 0.509

B3: HLA-A_Y51 (peptide)
chain: FIAVGYVDDTQ
inactive: SHP2 C-SH2 domain E139D 1.6 | [1] 1.34 | SHP2 N-SH2 domain L43F 1.41 | SHP2 N-SH2 domain T42A 1.43 | SHP2 N-SH2 domain T52S 1.56 | [2] 1.23

B4: HLA-A_Y51_T55S (peptide)
chain: FIAVGYVDDSQ
inactive: SHP2 C-SH2 domain E139D 1.52 | [1] 1.17 | SHP2 N-SH2 domain L43F 1.46 | SHP2 N-SH2 domain T42A 1.41 | SHP2 N-SH2 domain T52S 1.59 | [2] 1.3

B5: HLA-A_Y83 (peptide)
chain: QEGPEYWDQET
inactive: SHP2 C-SH2 domain E139D 0.463 | [1] 0.59 | SHP2 N-SH2 domain L43F 0.521 | SHP2 N-SH2 domain T42A 0.443 | SHP2 N-SH2 domain T52S 0.493 | [2] 0.668

B6: HLA-A_Y83_E87Q (peptide)
chain: QEGPEYWDQQT
inactive: SHP2 C-SH2 domain E139D 0.71 | [1] 0.807 | SHP2 N-SH2 domain L43F 0.649 | SHP2 N-SH2 domain T42A 0.639 | SHP2 N-SH2 domain T52S 0.608 | [2] 0.761

B7: HLA-A_Y83_G80E (peptide)
chain: QEEPEYWDQET
inactive: SHP2 C-SH2 domain E139D 0.548 | [1] 0.819 | SHP2 N-SH2 domain L43F 0.67 | SHP2 N-SH2 domain T42A 0.72 | SHP2 N-SH2 domain T52S 0.605 | [2] 0.886

B8: HLA-A_Y83_Q86G (peptide)
chain: QEGPEYWDGET
inactive: SHP2 C-SH2 domain E139D 0.562 | [1] 0.594 | SHP2 N-SH2 domain L43F 0.589 | SHP2 N-SH2 domain T42A 0.645 | SHP2 N-SH2 domain T52S 0.415 | [2] 0.783

B9: HLA-B_Y123 (peptide)
chain: TLQSMYGCDVG
inactive: SHP2 C-SH2 domain E139D 1 | [1] 0.79 | SHP2 N-SH2 domain L43F 0.729 | SHP2 N-SH2 domain T42A 0.71 | SHP2 N-SH2 domain T52S 0.826 | [2] 0.861

B10: HLA-B_Y123_T118I (peptide)
chain: ILQSMYGCDVG
inactive: SHP2 C-SH2 domain E139D 0.976 | [1] 0.884 | SHP2 N-SH2 domain L43F 0.823 | SHP2 N-SH2 domain T42A 0.79 | SHP2 N-SH2 domain T52S 1 | [2] 1.13

B11: HLA-B_Y195_W191S (peptide)
chain: ESLRRYLENGK
inactive: SHP2 C-SH2 domain E139D 0.709 | [1] 0.588 | SHP2 N-SH2 domain L43F 0.549 | SHP2 N-SH2 domain T42A 0.497 | SHP2 N-SH2 domain T52S 0.733 | [2] 0.882

B12: HLA-B_Y344 (peptide)
chain: GKGGSYSQAAC
inactive: SHP2 C-SH2 domain E139D 0.802 | [1] 0.759 | SHP2 N-SH2 domain L43F 0.854 | SHP2 N-SH2 domain T42A 0.71 | SHP2 N-SH2 domain T52S 0.76 | [2] 0.921

B13: HLA-B_Y344_C349S (peptide)
chain: GKGGSYSQAAS
inactive: SHP2 C-SH2 domain E139D 0.615 | [1] 0.536 | SHP2 N-SH2 domain L43F 0.607 | SHP2 N-SH2 domain T42A 0.527 | SHP2 N-SH2 domain T52S 0.41 | [2] 0.669

B14: HLA-B_Y51_Q56L (peptide)
chain: FISVGYVDDTL
inactive: SHP2 C-SH2 domain E139D 0.922 | [1] 1.24 | SHP2 N-SH2 domain L43F 1.1 | SHP2 N-SH2 domain T42A 1.1 | SHP2 N-SH2 domain T52S 1.26 | [2] 1.25

B15: HLA-B_Y51_S48T (peptide)
chain: FITVGYVDDTQ
inactive: SHP2 C-SH2 domain E139D 1.19 | [1] 1.14 | SHP2 N-SH2 domain L43F 1.08 | SHP2 N-SH2 domain T42A 1.12 | SHP2 N-SH2 domain T52S 1.45 | [2] 1.2

B16: HLA-B_Y83_R86G (peptide)
chain: QEGPEYWDGNT
inactive: SHP2 C-SH2 domain E139D 0.808 | [1] 0.724 | SHP2 N-SH2 domain L43F 0.649 | SHP2 N-SH2 domain T42A 0.663 | SHP2 N-SH2 domain T52S 0.586 | [2] 0.773

B17: HLA-C_Y137 (peptide)
chain: RLLRGYDQSAY
inactive: SHP2 C-SH2 domain E139D 1.28 | [1] 1.11 | SHP2 N-SH2 domain L43F 1.14 | SHP2 N-SH2 domain T42A 0.927 | SHP2 N-SH2 domain T52S 1.11 | [2] 1.48

B18: HLA-C_Y137_D138N_YF (peptide)
chain: RLLRGYNQSAF
inactive: SHP2 C-SH2 domain E139D 1.24 | [1] 1.07 | SHP2 N-SH2 domain L43F 1.12 | SHP2 N-SH2 domain T42A 0.995 | SHP2 N-SH2 domain T52S 1.3 | [2] 1.22

B19: HLA-C_Y137_S140L_YF (peptide)
chain: RLLRGYDQLAF
inactive: SHP2 C-SH2 domain E139D 1.32 | [1] 1.34 | SHP2 N-SH2 domain L43F 1.12 | SHP2 N-SH2 domain T42A 1.57 | SHP2 N-SH2 domain T52S 1.61 | [2] 1.4

B20: HLA-C_Y183 (peptide)
chain: EQLRAYLEGTC
inactive: SHP2 C-SH2 domain E139D 0.739 | [1] 0.931 | SHP2 N-SH2 domain L43F 0.811 | SHP2 N-SH2 domain T42A 0.753 | SHP2 N-SH2 domain T52S 0.829 | [2] 0.817

B21: HLA-C_Y183_L180D (peptide)
chain: EQDRAYLEGTC
inactive: SHP2 C-SH2 domain E139D 0.515 | [1] 0.506 | SHP2 N-SH2 domain L43F 0.568 | SHP2 N-SH2 domain T42A 0.482 | SHP2 N-SH2 domain T52S 0.541 | [2] 0.638

B22: HLA-C_Y183_T187L (peptide)
chain: EQLRAYLEGLC
inactive: SHP2 C-SH2 domain E139D 1.21 | [1] 1.22 | SHP2 N-SH2 domain L43F 1.03 | SHP2 N-SH2 domain T42A 1.17 | SHP2 N-SH2 domain T52S 1.1 | [2] 1.7

B23: HLA-C_Y31_D33F (peptide)
chain: SHSMRYFFTAV
inactive: SHP2 C-SH2 domain E139D 3.04 | [1] 2.82 | SHP2 N-SH2 domain L43F 2.83 | SHP2 N-SH2 domain T42A 2.61 | SHP2 N-SH2 domain T52S 2.84 | [2] 2.76

B24: HLA-C_Y31_D33S (peptide)
chain: SHSMRYFSTAV
inactive: SHP2 C-SH2 domain E139D 0.893 | [1] 0.756 | SHP2 N-SH2 domain L43F 0.797 | SHP2 N-SH2 domain T42A 0.841 | SHP2 N-SH2 domain T52S 0.785 | [2] 0.842

B25: HLA-DPB1_Y57 (peptide)
chain: RFLERYIYNRE
inactive: SHP2 C-SH2 domain E139D 1.95 | [1] 2.06 | SHP2 N-SH2 domain L43F 2.38 | SHP2 N-SH2 domain T42A 1.66 | SHP2 N-SH2 domain T52S 2.07 | [2] 1.63

B26: HLA-DPB1_Y57_R61P (peptide)
chain: RFLERYIYNPE
inactive: SHP2 C-SH2 domain E139D 2.23 | [1] 1.62 | SHP2 N-SH2 domain L43F 1.59 | SHP2 N-SH2 domain T42A 1.92 | SHP2 N-SH2 domain T52S 1.97 | [2] 1.94

B27: HLA-DPB1_Y57_Y57D_YF (peptide)
chain: RFLERDIFNRE
inactive: SHP2 C-SH2 domain E139D 1.05 | [1] 0.818 | SHP2 N-SH2 domain L43F 1.2 | SHP2 N-SH2 domain T42A 1.06 | SHP2 N-SH2 domain T52S 1.6 | [2] 0.653

B28: HLA-DPB1_Y59_E62Q (peptide)
chain: LERYIYNRQEF
inactive: SHP2 C-SH2 domain E139D 1.16 | [1] 0.907 | SHP2 N-SH2 domain L43F 0.788 | SHP2 N-SH2 domain T42A 0.697 | SHP2 N-SH2 domain T52S 0.845 | [2] 0.951

B29: HLA-DPB1_Y59_E62Q_YF (peptide)
chain: LERFIYNRQEF
inactive: SHP2 C-SH2 domain E139D 1.1 | [1] 0.831 | SHP2 N-SH2 domain L43F 0.893 | SHP2 N-SH2 domain T42A 0.855 | SHP2 N-SH2 domain T52S 1.15 | [2] 1.06

B30: HLA-DPB1_Y59_F64L (peptide)
chain: LERYIYNREEL
inactive: SHP2 C-SH2 domain E139D 1.09 | [1] 0.997 | SHP2 N-SH2 domain L43F 0.806 | SHP2 N-SH2 domain T42A 0.804 | SHP2 N-SH2 domain T52S 1.02 | [2] 0.827

B31: HLA-DPB1_Y59_F64L_YF (peptide)
chain: LERFIYNREEL
inactive: SHP2 C-SH2 domain E139D 1.31 | [1] 1.05 | SHP2 N-SH2 domain L43F 1.2 | SHP2 N-SH2 domain T42A 0.912 | SHP2 N-SH2 domain T52S 1.32 | [2] 1.58

B32: HLA-DPB1_Y59_R61P_YF (peptide)
chain: LERFIYNPEEF
inactive: SHP2 C-SH2 domain E139D 1.29 | [1] 0.937 | SHP2 N-SH2 domain L43F 1.09 | SHP2 N-SH2 domain T42A 1.33 | SHP2 N-SH2 domain T52S 1.06 | [2] 1

B33: HLA-DPB1_Y59_Y57D (peptide)
chain: LERDIYNREEF
inactive: SHP2 C-SH2 domain E139D 1.06 | [1] 1.06 | SHP2 N-SH2 domain L43F 0.83 | SHP2 N-SH2 domain T42A 0.627 | SHP2 N-SH2 domain T52S 0.693 | [2] 0.934

B34: HLA-DQB1_Y62_Y58G_YF (peptide)
chain: RGVTRYIFNRE
inactive: SHP2 C-SH2 domain E139D 0.336 | [1] 0.269 | SHP2 N-SH2 domain L43F 0.282 | SHP2 N-SH2 domain T42A 0.331 | SHP2 N-SH2 domain T52S 0.25 | [2] 0.314

B35: HLA-DQB1_Y62_Y58L_YF (peptide)
chain: RLVTRYIFNRE
inactive: SHP2 C-SH2 domain E139D 1.76 | [1] 0.459 | SHP2 N-SH2 domain L43F 0.348 | SHP2 N-SH2 domain T42A 0.341 | SHP2 N-SH2 domain T52S 0.372 | [2] 0.274

B36: HLA-DQB1_Y62_Y62H_YF (peptide)
chain: RFVTRHIFNRE
inactive: SHP2 C-SH2 domain E139D 0.393 | [1] 0.246 | SHP2 N-SH2 domain L43F 0.234 | SHP2 N-SH2 domain T42A 0.237 | SHP2 N-SH2 domain T52S 0.288 | [2] 0.192

B37: HLA-DRB1_Y107_A103Q (peptide)
chain: AQVDTYCRHNY
inactive: SHP2 C-SH2 domain E139D 1.08 | [1] 1.16 | SHP2 N-SH2 domain L43F 1.21 | SHP2 N-SH2 domain T42A 0.777 | SHP2 N-SH2 domain T52S 1.16 | [2] 1.33
